Experimental data reported in patent publication US9890133B2 (priority 2011, dated 2018).

Assays:
Coxsackie B1 = assay: organism not typed; details: read-out: Coxsackie B1 EC50
Coxsackie B3 = assay: microbe, parasite or virus in culture; details: Enterovirus B, B3, read-out: Coxsackie B3 EC50
Rhinovirus = assay: microbe, parasite or virus in culture; type: cell-based; details: Enterovirus
[1] = HRV71, read-out: Rhino HRV71 EC50
[2] = HRV14, read-out: Rhino HRV14 EC50
[3] = HRV21, read-out: Rhino HRV21 EC50

SMILES: CC(C)c1ccc2c(c1)OC1(O)c3ccccc3C(=O)C21O (stereo not drawn) [Example 10, 4b,9b-Dihydroxy-7-isopropyl-4bH-benzo[d]indeno[1,2-b]furan-10(9bH)-one]
- EC50 (Coxsackie B1): < 0.01 µg/mL
- EC50 (Coxsackie B3): < 0.01 µg/mL
- EC50 (Rhinovirus; [1]): < 1 µg/mL

SMILES: CC(C)C(=O)NC12C(=O)c3c(N)cccc3C1(O)Oc1cc(C(C)C)ccc12 (stereo not drawn) [Example 77, N-(1-Amino-4b-hydroxy-7-isopropyl-10-oxo-4b,10-dihydro-5-oxa-indeno[2,1-a]inden-9b-yl)-isobutylamide]
- EC50 (Coxsackie B1): < 0.01 µg/mL
- EC50 (Coxsackie B3): < 0.01 µg/mL
- EC50 (Rhinovirus; [2]): < 0.01 µg/mL

SMILES: CCCCCCCC(=O)N[C@@]12C(=O)c3c(N)cccc3[C@]1(O)Oc1cc(C(C)C)ccc12 [Example 93, N-((4bS,9bS)-1-Amino-4b-hydroxy-7-isopropyl-10-oxo-9b,10-dihydro-4bH-indeno[1,2-b]benzofuran-9b-yl)octanamide]
- EC50 (Coxsackie B1): < 0.01 µg/mL
- EC50 (Coxsackie B3): < 0.01 µg/mL
- EC50 (Rhinovirus; [2]): < 0.01 µg/mL

SMILES: CCC(=O)N[C@@]12C(=O)c3c(N)cccc3[C@]1(OC(=O)CC)Oc1cc(C(C)C)ccc12 [Example 94, (4bR,9bS)-1-Amino-7-isopropyl-10-oxo-9b-propionamido-9b,10-dihydro-4bH-indeno[1,2-b]benzofuran-4b-yl propionate]
- EC50 (Coxsackie B1): < 0.01 µg/mL
- EC50 (Coxsackie B3): < 0.01 µg/mL
- EC50 (Rhinovirus; [2]): < 0.01 µg/mL

SMILES: CCCC(=O)N[C@@]12C(=O)c3c(N)cccc3[C@]1(OC(=O)CCC)Oc1cc(C(C)C)ccc12 [Example 95, (4bR,9bS)-1-Amino-9b-butyramido-7-isopropyl-10-oxo-9b,10-dihydro-4bH-indeno[1,2-b]benzofuran-4b-yl butyrate]
- EC50 (Coxsackie B1): < 0.01 µg/mL
- EC50 (Coxsackie B3): < 0.01 µg/mL
- EC50 (Rhinovirus; [2]): < 0.01 µg/mL

SMILES: CCCCC(=O)NC12C(=O)c3c(N)cccc3C1(OC(=O)CCCC)Oc1cc(C(C)C)ccc12 (stereo not drawn) [Example 96, 1-Amino-7-isopropyl-10-oxo-9b-pentanamido-9b,10-dihydro-4bH-benzo[d]indeno[1,2-b]furan-4b-yl pentanoate]
- EC50 (Coxsackie B1): < 0.01 µg/mL
- EC50 (Coxsackie B3): < 0.01 µg/mL
- EC50 (Rhinovirus; [2]): < 0.01 µg/mL

SMILES: CCCCCC(=O)NC12C(=O)c3c(N)cccc3C1(OC(=O)CCCCC)Oc1cc(C(C)C)ccc12 (stereo not drawn) [Example 97, 1-amino-9b-hexanamido-7-isopropyl-10-oxo-9b,10-dihydro-4bH-benzo[d]indeno[1,2-b]furan-4b-yl hexanoate]
- EC50 (Coxsackie B1): < 0.01 µg/mL
- EC50 (Coxsackie B3): < 0.01 µg/mL
- EC50 (Rhinovirus; [2]): < 0.01 µg/mL

SMILES: CCCCCCC(=O)NC12C(=O)c3c(N)cccc3C1(OC(=O)CCCCCC)Oc1cc(C(C)C)ccc12 (stereo not drawn) [Example 99, 1-Amino-9b-heptanamido-7-isopropyl-10-oxo-9b,10-dihydro-4bH-benzo[d]indeno[1,2-b]furan-4b-yl heptanoate]
- EC50 (Coxsackie B1): < 0.01 µg/mL
- EC50 (Coxsackie B3): < 0.01 µg/mL
- EC50 (Rhinovirus; [2]): 0.0101 µg/mL (≈ 0.0189 µM)

SMILES: COC(=O)OC12Oc3cc(C(C)C)ccc3C1(NC(C)=O)C(=O)c1c(N)cccc12 (stereo not drawn) [Example 113, 9b-acetamido-1-amino-7-isopropyl-10-oxo-9b,10-dihydro-4bH-indeno[1,2-b]benzofuran-4b-yl methyl carbonate]
- EC50 (Coxsackie B1): < 0.01 µg/mL
- EC50 (Coxsackie B3): < 0.01 µg/mL
- EC50 (Rhinovirus; [2]): < 0.01 µg/mL
- EC50 (Rhinovirus; [3]): < 1 µg/mL

SMILES: CC(C)c1ccc2c(c1)OC1(O)c3cccc(N)c3C(=O)C21NC(=O)C(C)(C)C (stereo not drawn) [Example 114, N-(1-Amino-4b-hydroxy-7-isopropyl-10-oxo-9b,10-dihydro-4bH-benzo[d]indeno[1,2-b]furan-9b-yl)pivalamide]
- EC50 (Coxsackie B1): < 0.01 µg/mL
- EC50 (Coxsackie B3): < 0.01 µg/mL
- EC50 (Rhinovirus; [2]): < 0.01 µg/mL

SMILES: CCCCOC(=O)OC12Oc3cc(C(C)C)ccc3C1(NC(C)=O)C(=O)c1c(N)cccc12 (stereo not drawn) [Example 115, 9b-Acetamido-1-amino-7-isopropyl-10-oxo-9b,10-dihydro-4bH-benzo[d]indeno[1,2-b]furan-4b-yl butyl carbonate]
- EC50 (Coxsackie B1): < 0.01 µg/mL
- EC50 (Coxsackie B3): < 0.01 µg/mL
- EC50 (Rhinovirus; [2]): < 0.01 µg/mL

SMILES: CCOC(=O)OC12Oc3cc(C(C)C)ccc3C1(NC(C)=O)C(=O)c1c(N)cccc12 (stereo not drawn) [Example 123, 9b-Acetamido-1-amino-7-isopropyl-10-oxo-9b,10-dihydro-4bH-benzo[d]indeno[1,2-b]furan-4b-yl ethyl carbonate]
- EC50 (Coxsackie B1): < 0.01 µg/mL
- EC50 (Coxsackie B3): < 0.01 µg/mL
- EC50 (Rhinovirus; [2]): < 0.01 µg/mL
- EC50 (Rhinovirus; [3]): < 1 µg/mL

SMILES: CCC(=O)NC12C(=O)c3c(N)cccc3C1(O)Oc1cc(C(C)C)ccc12 (stereo not drawn) [Example 143, N-(1-Amino-4b-hydroxy-7-isopropyl-10-oxo-9b,10-dihydro-4bH-indeno[1,2-b]benzofuran-9b-yl)propionamide]
- EC50 (Coxsackie B1): < 0.01 µg/mL
- EC50 (Coxsackie B3): < 0.01 µg/mL
- EC50 (Rhinovirus; [2]): < 0.01 µg/mL
- EC50 (Rhinovirus; [3]): < 1 µg/mL

SMILES: CCCC(=O)NC12C(=O)c3c(N)cccc3C1(O)Oc1cc(C(C)C)ccc12 (stereo not drawn) [Example 144, N-(1-Amino-4b-hydroxy-7-isopropyl-10-oxo-9b,10-dihydro-4bH-indeno[1,2-b]benzofuran-9b-yl) butyramide]
- EC50 (Coxsackie B1): < 0.01 µg/mL
- EC50 (Coxsackie B3): < 0.01 µg/mL
- EC50 (Rhinovirus; [2]): < 0.01 µg/mL
- EC50 (Rhinovirus; [3]): < 1 µg/mL

SMILES: CC(C)c1ccc2c(c1)OC1(O)c3cccc(N)c3C(=O)C21NC(=O)c1ccccc1 (stereo not drawn) [Example 153, N-(1-Amino-4b-hydroxy-7-isopropyl-10-oxo-9b,10-dihydro-4bH-indeno[1,2-b]benzofuran-9b-yl)benzamide]
- EC50 (Coxsackie B1): < 0.01 µg/mL
- EC50 (Coxsackie B3): < 0.01 µg/mL
- EC50 (Rhinovirus; [2]): < 0.01 µg/mL
- EC50 (Rhinovirus; [3]): < 1 µg/mL
- EC50 (Rhinovirus; [1]): < 1 µg/mL

SMILES: COc1cccc(C(=O)NC23C(=O)c4c(N)cccc4C2(O)Oc2cc(C(C)C)ccc23)c1 (stereo not drawn) [Example 154, N-(1-Amino-4b-hydroxy-7-isopropyl-10-oxo-9b,10-dihydro-4bH-indeno[1,2-b]benzofuran-9b-yl)-3-methoxybenzamide]
- EC50 (Coxsackie B1): < 0.01 µg/mL
- EC50 (Coxsackie B3): < 0.01 µg/mL
- EC50 (Rhinovirus; [2]): < 0.01 µg/mL
- EC50 (Rhinovirus; [3]): < 1 µg/mL
- EC50 (Rhinovirus; [1]): < 1 µg/mL

SMILES: CC(C)c1ccc2c(c1)OC1(O)c3cccc(N)c3C(=O)C21NC(=O)c1ccc(Cl)cc1 (stereo not drawn) [Example 155, N-(1-Amino-4b-hydroxy-7-isopropyl-10-oxo-9b,10-dihydro-4bH-indeno[1,2-b]benzofuran-9b-yl)-4-chlorobenzamide]
- EC50 (Coxsackie B1): < 0.01 µg/mL
- EC50 (Coxsackie B3): < 0.01 µg/mL
- EC50 (Rhinovirus; [2]): < 0.01 µg/mL
- EC50 (Rhinovirus; [3]): < 1 µg/mL
- EC50 (Rhinovirus; [1]): < 1 µg/mL

SMILES: CC(C)c1ccc2c(c1)OC1(O)c3cccc(N)c3C(=O)C21NC(=O)C1CC1 (stereo not drawn) [Example 158, N-(1-Amino-4b-hydroxy-7-isopropyl-10-oxo-9b,10-dihydro-4bH-indeno[1,2-b]benzofuran-9b-yl)cyclopropanecarboxamide]
- EC50 (Coxsackie B1): < 0.01 µg/mL
- EC50 (Coxsackie B3): < 0.01 µg/mL
- EC50 (Rhinovirus; [2]): < 0.01 µg/mL
- EC50 (Rhinovirus; [3]): < 1 µg/mL

SMILES: CC(C)c1ccc2c(c1)OC1(O)c3ccccc3C(=O)C21NC(=O)c1cccs1 (stereo not drawn) [Example 161, N-(4b-Hydroxy-7-isopropyl-10-oxo-9b,10-dihydro-4bH-indeno[1,2-b]benzofuran-9b-yl)thiophene-2-carboxamide]
- EC50 (Coxsackie B1): < 0.01 µg/mL
- EC50 (Coxsackie B3): < 0.01 µg/mL
- EC50 (Rhinovirus; [2]): < 0.01 µg/mL
- EC50 (Rhinovirus; [3]): < 1 µg/mL

SMILES: CC(C)c1ccc2c(c1)OC1(O)c3cccc(N)c3C(=O)C21NC(=O)NC(C)(C)C (stereo not drawn) [Example 165]
- EC50 (Coxsackie B1): < 0.01 µg/mL
- EC50 (Coxsackie B3): < 0.01 µg/mL
- EC50 (Rhinovirus; [2]): < 0.01 µg/mL

SMILES: CC(C)c1ccc2c(c1)OC1(O)c3cccc(N)c3C(=O)C21NC=O (stereo not drawn) [Example 166, N-(1-Amino-4b-hydroxy-7-isopropyl-10-oxo-9b,10-dihydro-4bH-indeno[1,2-b]benzofuran-9b-yl)formamide]
- EC50 (Coxsackie B1): < 0.01 µg/mL
- EC50 (Coxsackie B3): < 0.01 µg/mL
- EC50 (Rhinovirus; [2]): < 0.01 µg/mL
- EC50 (Rhinovirus; [3]): < 1 µg/mL
- EC50 (Rhinovirus; [1]): < 1 µg/mL

SMILES: CC(C)c1ccc2c(c1)OC1(O)c3ccccc3C(=O)C21NC(=O)c1ccc([N+](=O)[O-])s1 (stereo not drawn) [Example 223, N-(4b-hydroxy-7-isopropyl-10-oxo-9b,10-dihydro-4bH-benzo[d]indeno[1,2-b]furan-9b-yl)-5-nitrothiophene-2-carboxamide]
- EC50 (Coxsackie B1): < 0.01 µg/mL
- EC50 (Coxsackie B3): < 0.01 µg/mL

SMILES: CC(C)c1ccc2c(c1)OC1(O)c3ccccc3C(=O)C21NC(=O)c1cc(=O)[nH]c(=O)[nH]1 (stereo not drawn) [Example 224, N-(4b-Hydroxy-7-isopropyl-10-oxo-9b,10-dihydro-4bH-benzo[d]indeno[1,2-b]furan-9b-yl)-2,6-dioxo-1,2,3,6-tetrahydropyrimidine-4-carboxamide]
- EC50 (Coxsackie B1): < 0.01 µg/mL
- EC50 (Coxsackie B3): 0.013 µg/mL (≈ 0.03 µM)

SMILES: CC(C)c1ccc2c(c1)OC1(O)c3ccccc3C(=O)C21NC(=O)c1cc2ccccc2oc1=O (stereo not drawn) [Example 225, N-(4b-hydroxy-7-isopropyl-10-oxo-9b,10-dihydro-4bH-benzo[d]indeno[1,2-b]furan-9b-yl)-2-oxo-2H-chromene-3-carboxamide]
- EC50 (Coxsackie B1): < 0.01 µg/mL
- EC50 (Coxsackie B3): < 0.01 µg/mL

SMILES: CC(C)c1ccc2c(c1)OC1(O)c3ccccc3C(=O)C21NC(=O)c1ccc(=O)oc1 (stereo not drawn) [Example 226, N-(4b-Hydroxy-7-isopropyl-10-oxo-9b,10-dihydro-4bH-benzo[d]indeno[1,2-b]furan-9b-yl)-2-oxo-2H-pyrane-5-carboxamide]
- EC50 (Coxsackie B1): < 0.01 µg/mL
- EC50 (Coxsackie B3): < 0.01 µg/mL

SMILES: CC(C)c1ccc2c(c1)OC1(O)c3ccccc3C(=O)C21NC(=O)c1nc2ccccc2[nH]1 (stereo not drawn) [Example 227, N-(4b-hydroxy-7-isopropyl-10-oxo-9b,10-dihydro-4bH-benzo[d]indeno[1,2-b]furan-9b-yl)-1H-benzo[d]imidazole-2-carboxamide]
- EC50 (Coxsackie B1): < 0.01 µg/mL
- EC50 (Coxsackie B3): < 0.01 µg/mL

SMILES: CC(C)c1ccc2c(c1)OC1(O)c3cccc(N)c3C(=O)C21NC(=O)c1ccc(N)o1 (stereo not drawn) [Example 232, 5-amino-N-(1-amino-4b-hydroxy-7-isopropyl-10-oxo-9b,10-dihydro-4bH-indeno[1,2-b]benzofuran-9b-yl)furane-2-carboxamide]
- EC50 (Coxsackie B1): 0.012 µg/mL (≈ 0.0286 µM)
- EC50 (Coxsackie B3): 0.024 µg/mL (≈ 0.0572 µM)

SMILES: CC(C)c1ccc2c(c1)OC1(O)c3ccccc3C(=O)C21NC(=O)c1cnnc2ccccc12 (stereo not drawn) [Example 239, N-(4b-hydroxy-7-isopropyl-10-oxo-9b,10-dihydro-4bH-benzo[d]indeno[1,2-b]furan-9b-yl)cinnoline-4-carboxamide]
- EC50 (Coxsackie B1): < 0.01 µg/mL
- EC50 (Coxsackie B3): < 0.01 µg/mL

SMILES: CC(C)c1ccc2c(c1)OC1(O)c3cccc(N)c3C(=O)C21NC(=O)c1c2ccccc2nc2ccccc12 (stereo not drawn) [Example 241, N-(1-Amino-4b-hydroxy-7-isopropyl-10-oxo-9b,10-dihydro-4bH-benzo[d]indeno[1,2-b]furan-9b-yl)acridine-9-carboxamide]
- EC50 (Coxsackie B1): < 0.01 µg/mL
- EC50 (Coxsackie B3): < 0.01 µg/mL

Converted amounts (≈) assume the structure as drawn. Like-named read-outs stand apart in the source and are kept apart here.
